# Measurements reported in publication PMC12136788.
# This is one part of the list.
# T1: UNK ZnF1-3 (human, UniProt Q9C0B0 31-174)
# T1 sequence: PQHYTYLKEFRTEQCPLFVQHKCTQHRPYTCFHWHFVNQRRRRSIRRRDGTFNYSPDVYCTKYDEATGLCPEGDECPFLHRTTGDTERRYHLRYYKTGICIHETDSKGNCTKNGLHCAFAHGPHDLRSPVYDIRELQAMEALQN
# B1: 20483050_20486938_462_CDS_ENSG00000112242_ENST00000535432|human|control|control (ssRNA)
# RNA: GGGAGUUCUACAGUCCGACGAUCAUAUGUAACAUAAGCUAACCUUUGAUUCUCUGAAUCCUCGGUUAACAGUUUGAGGUCCAGGGUGCAGCUUUGGAUCAGUUCAUCUAAUUUCUUCUCUUCCUGACUGAGCUCGGUCACUUCCAACAGAGGAUUGAGCAUCA
# B2: chr6:30774501:30774502:-_ENSMUSG00000025607_ENSMUST00000048774|mus_hu|FALSE|FALSE (ssRNA)
# RNA: GGGAGUUCUACAGUCCGACGAUCGAGGGUGGUGAUGGCCAGCGUGGCAAUGCUGCGGUUUGAAUCUGUGACCAGGUUCUCCAGAUCCAGAUUACAAGCUGUCACAGCUGACGGAUGCUUCAUGGCAACCUUAUUGAGGGUACGCAACAGAGGAUUGAGCAUCA
# B3: chr1:46159212:46159213:+_ENSG00000159596_ENST00000372025|hu_mus|hu_hu_hu_mus_True|18_108 (ssRNA)
# RNA: GGGAGUUCUACAGUCCGACGAUCUCUGAUCCCACCCAAGAAAGCUAGGAAACCGGCUCCAUAAGCCAUCUGAGUGAAAGCUAGGACGGGGAUAUAAGACUUUGUUAUUACCAUGAGCAGUGGUGGAGCAGUAAAGGGGAUUAACAACAGAGGAUUGAGCAUCA
# B4: chr7:97619395:97619396:-_ENSMUSG00000030614_ENSMUST00000032843|mus_hu|FALSE|FALSE (ssRNA)
# RNA: GGGAGUUCUACAGUCCGACGAUCCAAUGAUGCAUAUGUCUUCAAAGCAUCAUGUUUAACCUUGAAGCAGCGUCUGAACAGGAAGUUUGAGAAUAUUCCAGAGAAACCAGCUGUUGUUCCAAAUGUCGCCAUUUGAUAUAUAUUCAACAGAGGAUUGAGCAUCA
# B5: chr4:76721835:76721836:+_ENSG00000138768_ENST00000264904|hu_mus|hu_hu_hu_mus_True|38_88 (ssRNA)
# RNA: GGGAGUUCUACAGUCCGACGAUCGUUUGGCUGGGGUUUCUGAGACGUCUGGAAUACUAACUCAUGUUUGCUAAUAAAUCCUAGUUUCUCUAUGAAAUCUCUUUGCCCAAUCCUCUUCUCUAUUAGUUGCUUUAGUUUCUCUUUCAACAGAGGAUUGAGCAUCA
# B6: chr1:127300101:127300102:-_ENSMUSG00000026341_ENSMUST00000027579|perfect_dup|FALSE|FALSE (ssRNA)
# RNA: GGGAGUUCUACAGUCCGACGAUCAGUAUACUGUUUAAUCCAUUUUGACCCAUCUGUAUCAUACUUGUUAAAUUCUUUUACUAAAUCUGGGCAGACAUAACUAUAGCGCUCCUUUACUGCCUUAGCAGUUUCCAAGGAUUGUUCCAACAGAGGAUUGAGCAUCA
# B7: 36893413_36894925_731_3pUTR_ENSMUSG00000034243_ENSMUST00000039855|mouse|control|control (ssRNA)
# RNA: GGGAGUUCUACAGUCCGACGAUCCCUCAAUUUCUGUUGCAUCUCUGUUUCCACAUCUGACUGGGUUACUAACUGAAGGAGCUCAUCUUCAUGGAGACGAACCUGUGUUUCAAAGCGGGCGUCUUUCUCUCGGACCACCUGCUGCAACAGAGGAUUGAGCAUCA
# B8: chr17:60642451:60642452:+_ENSG00000146872_ENST00000343388|hu_mus|FALSE|FALSE (ssRNA)
# RNA: GGGAGUUCUACAGUCCGACGAUCUUCCUGUUGCUUGAUGAGGUUUUGGAAAGCAUAACCAUCUGUCCACUGCUCAGUAAACGAGGCUCCAUGCCGGACAGUAGUAAAGUGGCCUAAUCGCAAUCGGUCCUGCAUGCUCUUAUCCAACAGAGGAUUGAGCAUCA
# B9: 20082194_20113866_740_CDS_ENSG00000114166_ENST00000263754|human|control|control (ssRNA)
# RNA: GGGAGUUCUACAGUCCGACGAUCGUUAGGGUUUUUCCAGCCAUUACAUUUACAAGACUCCUCGGCCUUGCAGGCGGAGUACACUCCGAGUUUCUCCAGUUUCUUGGCCCGCGGAGCGGAGCGUAGUUGCGCUUUCUUCACGGCCAACAGAGGAUUGAGCAUCA
# B10: chr1:118502009:118502010:+_ENSG00000065183_ENST00000349139|hu_hu|motif|central (ssRNA)
# RNA: GGGAGUUCUACAGUCCGACGAUCCGUUAGAAUCAACUUCUCCCUCUUUUUCCUCUUCCUCUUCUUCUCUUCCAAGUGGCGGGUAGCAUCAGCAAAAAACAUAACUUCACUUUUUGCCUCGCAUUCCCUCUUGAGAUAAUCAAGCAACAGAGGAUUGAGCAUCA
# B11: chr4:57314706:57314707:+_ENSG00000128050_ENST00000264221|hu_mus|hu_hu_hu_mus_True|18_78 (ssRNA)
# RNA: GGGAGUUCUACAGUCCGACGAUCCAGAAUUUCAAAAAUAGCUUGUGUGGCAUGACUCAUGAUAUCCACUUCAGUCUGCCCUAUAACAAGGCCAGCAAAACAGAAUUUUGCAGCAAUCAGCUGUUCCUCAGACCACUGUGGAUCCAACAGAGGAUUGAGCAUCA
# B12: chr3:10015032:10015033:+_ENSMUSG00000027533_ENSMUST00000029046|mus_mus|mus_mus_mus_hu_True|28_48 (ssRNA)
# RNA: GGGAGUUCUACAGUCCGACGAUCGUUUUUACCAUCACAAGUGAUGAUACAAUCUGGCUUGGCCAUUGCGCCCAUUUUUCGCAAAGCCAGUCCUACUCCUAGCUCCUUCAUGUACUCAUCAAAGCCUUUGCUGUCCACCAGGCGCAACAGAGGAUUGAGCAUCA
# B13: chr2:97007812:97007813:+_ENSG00000121152_ENST00000240423|hu_hu|FALSE|FALSE (ssRNA)
# RNA: GGGAGUUCUACAGUCCGACGAUCGGACAGUUUGAUACAGGUGGAGUAAUGUUCCGUAAUCUGCGUGUUUGUAAACUUGGGGAUAGUAGCUGAAAUGUCAAUACUCCUGCUGGAGGGGGAGGCCAAUAAGCGAGGUGAGUCAGUCAACAGAGGAUUGAGCAUCA
# B14: chr14:55655841:55655842:-_ENSG00000126787_ENST00000247191|hu_mus|FALSE|FALSE (ssRNA)
# RNA: GGGAGUUCUACAGUCCGACGAUCCACCCUGUGUCUGUUCUCCUUCUGAGACAGAGACUUUCUAUGAGCCAAGUUGGUUCUAACCAUCUCAGUGCUCGAGUCUUUCCGAAACCGACUGGCAAAACGUGACACCAGCAUCCUGAACAACAGAGGAUUGAGCAUCA
# B15: 16684005_16685927_4424_CDS_ENSG00000145555_ENST00000513610|human|control|control (ssRNA)
# RNA: GGGAGUUCUACAGUCCGACGAUCGGCACACACAGAAUCAAUCAGCCCCACAUCCAAGGUGCCCACAGCAUUCUGUGGGUUUGCCUGCUCAUCAUGCAUCUCCUGGAUCUCCUGGUCCGUGGACGCGUGGACCUGACUCAGCACCAACAGAGGAUUGAGCAUCA
# B16: chr7:108212191:108212192:+_ENSG00000128590_ENST00000249356|hu_mus|FALSE|FALSE (ssRNA)
# RNA: GGGAGUUCUACAGUCCGACGAUCGUUAUCAUUAAAAUGCAGAUUGCAAAGACGAAAACUGACUGUGGAGUAGCCAUUUCUAAUAACCUGUGCGCCCCGACGCAGCUUCUCCACAGCGCGGCGGCCCGGCUCCGGUUCCCUGACCAACAGAGGAUUGAGCAUCA
# B17: chr2:198351390:198351391:-_ENSG00000144381_ENST00000345042|hu_hu|hu_hu_hu_mus_False|18_28 (ssRNA)
# RNA: GGGAGUUCUACAGUCCGACGAUCUCAUUCCCACCCUCCACAGAAAGGCUGCUUCUGAACUCUCAUGUGGUGACACAGCGCUACAGUCCUGAUGCUCACAGAACAGUAGUAAAAAUGCCUCAGUGAUAGUUGAAAGCAGGACACCAACAGAGGAUUGAGCAUCA
# B18: chr1:40030818:40030819:+_ENSMUSG00000026074_ENSMUST00000163854|mus_mus|FALSE|FALSE (ssRNA)
# RNA: GGGAGUUCUACAGUCCGACGAUCUGGAGGGCUCUUCUUAAUGAAAGCACCAUAGUACGUGGCAAUAUUUCGAUGAUGAGAAUACUUCUUCAGCAUAUUUAUCUCCAGUUUGAUUUCUUCCUCUUCAUCCUCGGUGACGUCCAUCAACAGAGGAUUGAGCAUCA
# B19: 116059970_116060090_329_5pUTR_ENSMUSG00000020777_ENSMUST00000066587|mouse|control|control (ssRNA)
# RNA: GGGAGUUCUACAGUCCGACGAUCUGGAUUGAAGGUGGCGGCGGCCCGCUCCUUGCGCAGAUCGGGAUUCAUGACGGAGACCAGUGCUGGGGGCAGAGGAGGUGGCGACAGAAGUGACAGGCACCAAAGCGAUGACAACCUGUCCAACAGAGGAUUGAGCAUCA
# B20: chr14:76904430:76904431:+_ENSMUSG00000022010_ENSMUST00000022587|mus_mus|mus_mus_mus_hu_True|18_58 (ssRNA)
# RNA: GGGAGUUCUACAGUCCGACGAUCUGCAGCCAAAAACACCCUCGUGGAAAAAAAGAGGGAACACCAGCAGCCUUGUACAAACUAGAUAAAAUCUUCUGGCUUUCCGCAGCCCAGGGAGUGAGAACGGACGGCAGCCCUAAUUUACAACAGAGGAUUGAGCAUCA
# B21: 55603627_55603862_1926_CDS_ENSG00000125503_ENST00000592993|human|control|control (ssRNA)
# RNA: GGGAGUUCUACAGUCCGACGAUCGCCGCAGCGUGGUCUCGGUCAGGGCCUCGCGAAGCCGCUCGUUCUCCCUGCGCAGCUCUGCAUACAGCGUCCUAAAGCCUCCGUCUGGCUCUUCCGAUUCUGGCUCAGGUUCUGGGUUGACAACAGAGGAUUGAGCAUCA
# B22: chrX:12728449:12728450:+_ENSMUSG00000031010_ENSMUST00000089302|perfect_dup|FALSE|FALSE (ssRNA)
# RNA: GGGAGUUCUACAGUCCGACGAUCAUGUCCUAAAGCUUUUAAAGCUUCAUCUAAACUAUCCACCAAUGAAUUAAAAAAUUCUAAAGCAUCGUGUUGUUCACGCAGAUUAACAGGCUCACCCCAAAGCCUGAACUGUUUCCAAAACAACAGAGGAUUGAGCAUCA
# Biological target: T1, UNK ZnF1-3
# Experiment: nsRBNS (natural sequence RNA bind-n-seq); RBNS binding buffer (assumed for nsRBNS): 25 mM Tris pH 7.5, 150 mM KCl, 3 mM MgCl2, 0.01% Triton X-100, 500 ug/ml BSA, 20 U/ml SUPERase-In, 4 C; UNK is unkempt and MSI1 is Musashi-1; names of the RNAs are library labels; protein concentration not given here; high values mean tight binding
row,Binder,binding signal
1,B1,0.769 enrichment R
2,B2,0.69 enrichment R
3,B3,1.6 enrichment R
4,B4,0.76 enrichment R
5,B5,0.439 enrichment R
6,B6,0.437 enrichment R
7,B7,0.594 enrichment R
8,B8,1.16 enrichment R
9,B9,0.429 enrichment R
10,B10,0.844 enrichment R
11,B11,1.09 enrichment R
12,B12,0.653 enrichment R
13,B13,1.22 enrichment R
14,B14,0.793 enrichment R
15,B15,0.684 enrichment R
16,B16,1.12 enrichment R
17,B17,1.34 enrichment R
18,B18,0.836 enrichment R
19,B19,1.28 enrichment R
20,B20,1.78 enrichment R
21,B21,0.589 enrichment R
22,B22,1.31 enrichment R
